# Results reported in PubChem BioAssay AID1347073 (National Center for Advancing Translational Sciences (NCATS), 2019).
# Screen size: about 45,000 compounds; about 200 (0.44%) were called active. Another 7% or so got no clear call; they are omitted. The call rests on the fitted dose curve; in most records, active means well fitted activation curve with a large enough effect; inconclusive means small, poorly fitted or top-dose-only effect; inactive means no such curve, though single readings can be large or run the other way. Some of the results follow.
# Experiment: qHTS of TDP-43 Inhibitors: NCGC Sytravon Library Screen; further: 0% is about no effect; nearly all actives have a fitted effect of over 55% in size
# Conditions: yeast TDP-43 toxicity rescue, BacTiter-Glo growth, 24 h; series mostly up to 46.1 µM; growth rescue (activation): at the top concentration
# Outline: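 TDP-43-expressing yeast, pregrown in raffinose, seeded at OD600 0.02 in galactose medium with compound for 24 hr at 30 deg C. Growth read by BacTiter-Glo luminescence, so rescue of toxicity appears as activation.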
row,Structure (SMILES),growth rescue (activation)
1,O=C(Nc1cccc(F)c1)C1CCN(C(=O)Cc2ccccc2)CC1,inactive: 18.2%
2,CN(CC1COCCO1)c1nc2nonc2nc1N1CCSCC1 (stereo not given),inactive: 9.78%
3,COc1ccc(/C=N/NC(=O)C2COc3ccccc3O2)cc1OC (stereo not given),inactive: 6.88%
4,COc1ccc(-c2nc(CNS(=O)(=O)c3ccc(Br)cc3)cs2)cc1,inactive: 17.3%
5,CCN(C(=O)c1cc2c(C)nc3ccccc3c2o1)c1cc(Cl)ccc1OC,inactive: 14.6%
6,Cc1cc(N/N=C/c2ccccc2O)nc(N2CCOCC2)n1,inactive: 25%
7,CCN(CC)C(=O)CSc1nnc(NC(=O)CCc2ccccc2)s1,inactive: 11.7%
8,CCC(CC)C(=O)Nc1c2c(nn1-c1ccc(C)cc1)CS(=O)(=O)C2,inactive: -9.67%
9,COc1cc(N=CC2=C(O)c3ccccc3C2=O)cc(OC)c1,inactive: 1.15%
10,CCCn1nc(C(=O)NNC(=O)c2cccc(C)c2)c2ccccc2c1=O,inactive: 2.38%
11,CCN(CC)c1ccc(/C=N/NC(=O)Cc2nnc(NC(=O)Nc3ccccc3)s2)cc1,inactive: 7.1%
12,CC(=C/c1ccccc1)/C=N/n1c(-c2ccncc2)n[nH]c1=S,inactive: 14.3%
13,O=C1c2cccc3cccc(c23)C(=O)N1CCN1CCN(CC(O)COCc2ccc(Cl)cc2)CC1 (stereo not given),inactive: -22.3%
14,O=C(O)c1cc(-c2ccc(/C=N/NC(=S)Nc3ccccc3)o2)ccc1Cl,inactive: 1.52%
15,CCOC(=O)C1(Cc2ccccc2)CCCN(Cc2cccc(C(C)=O)c2)C1 (stereo not given),inactive: 5.31%
16,COc1cccc(C(=O)CC(=O)C(=O)Nc2cc(OC)ccc2OC)c1,inactive: -15.3%
17,CC(C)(C)N(Cc1ccccc1)C(=O)COC(=O)C1CCCCC1,inactive: 35.7%
18,CCN(C(=O)CSc1nc2ccc(Cl)cc2[nH]1)C1CCS(=O)(=O)C1 (stereo not given),inactive: 17.4%
19,COc1cc(C)ccc1OCC(=O)OCC(=O)c1ccc[nH]1,inactive: 12.5%
20,C=CCNc1nnnc2c1sc1nc(N3CCOCC3)c3c(c12)CCCC3,inactive: 5.65%
21,O=C(COC(=O)COc1ccccc1)Nc1cccnc1Cl,inactive: -0.977%
22,O=C(CSc1nnc(C2COc3ccccc3O2)o1)N1CCCC1 (stereo not given),inactive: -4.59%
23,CN(Cc1nc2ccccc2[nH]1)C(=O)C1CCC(=O)N(C2CCCC2)C1 (stereo not given),inactive: 13%
24,O=C(Nc1ccc(C(=O)N2CCOCC2)cc1)Nc1cccc(Cl)c1,inactive: 2.15%
25,O=C(O)C1(Cc2nc3ccccc3[nH]2)CCCC1,inactive: -21.5%
26,Cn1nnc2c[n+](CC(=O)c3ccc4ccccc4c3)cc(Br)c21,inactive: 14.7%
27,COC(=O)c1c(C)nc(C)c(C(=O)OC)c1-c1ccc(OC)c(OC)c1,inactive: -21%
28,O=C(COC(=O)c1cc(=O)[nH]c(=O)[nH]1)Nc1ccccc1F,inactive: 9.69%
29,CCc1nc2ccc(C(=O)NCCCn3ccnc3)cn2c1N(CC)Cc1cccc(Br)c1,inactive: 12.1%
30,O=S(=O)(c1ccc(Cl)c(NC(=S)N/N=C/c2c(F)cccc2F)c1)N1CCOCC1,inactive: 14.8%
